Laboratory results as given in a collection of fitness landscapes (doi:10.1126/science.1257360).
This is one part of the list.

B1: PhoQ; a variant is named by its letters at X, in order, P23837 (parent)
chain: MKKLLRLFFPLSLRVRFLLATAAVVLVLSLAYGMVALIGYSVSFDKTTFRLLRGESNLFYTLAKWENNKLHVELPENIDKQSPTMTLIYDENGQLLWAQRDVPWLMKMIQPDWLKSNGFHEIEADVNDTSLLLSGDHSIQQQLQEVREDDDDAEMTHSVAVNVYPATSRMPKLTIVVVDTIPVELKSSYMVWSWFIYVLSANLLLVIPLLWVAAWWSLRPIEALAKEVRELEEHNRELLNPATTRELTSLVRNLNRLLKSERERYDKYRTTLTDLTHSLKTPLXXLQXXLRSLRSEKMSVSDAEPVMLEQISRISQQIGYYLHRASMRGGTLLSRELHPVAPLLDNLTSALNKVYQRKGVNISLDISPEISFVGEQNDFVEVMGNVLDNACKYCLEFVEISARQTDEHLYIVVEDDGPGIPLSKREVIFDRGQRVDTLRPGQGVGLAVAREITEQYEGKIVAGESMLGGARMEVIFGRQHSAPKDE

Variants of: B1
Experiment: enrichment ratio after two sorts for PhoP signalling (ratio (wild type AVST 3.29)); higher = more functional
Settings: with PhoP (E. coli)

Variant	enrichment ratio
IERN	≤ 0.25
AHDE	≤ 0.25
GPKP	≤ 0.25
YFLR	≤ 0.25
QNGK	≤ 0.25
ETPD	≤ 0.25
RMAC	≤ 0.25
INEK	≤ 0.25
IPWE	≤ 0.25
DFTF	≤ 0.25
IQTH	≤ 0.25
GRPM	≤ 0.25
EYDV	≤ 0.25
YKES	≤ 0.25
GICI	7.05
YTAK	≤ 0.25
NTLL	1.47
MKNS	≤ 0.25
RPYY	≤ 0.25
GCHF	≤ 0.25
LFWQ	≤ 0.25
RIAS	≤ 0.25
VWDW	≤ 0.25
SGYR	≤ 0.25

Variant	enrichment ratio
GINC	≤ 0.25
MMRF	≤ 0.25
SMPD	≤ 0.25
FRTP	≤ 0.25
MNFT	≤ 0.25
QAFL	≤ 0.25
EFNG	≤ 0.25
SYMQ	≤ 0.25
DHCR	≤ 0.25
FSYM	≤ 0.25
ALDW	≤ 0.25
IRHK	≤ 0.25
SCEL	≤ 0.25
FQIL	≤ 0.25
MIGF	11.9
YHPL	≤ 0.25
DMHK	≤ 0.25
RTRW	≤ 0.25
NQRP	≤ 0.25
RPSQ	≤ 0.25
HSYW	≤ 0.25
PRIG	≤ 0.25
SHAA	≤ 0.25
LIDF	≤ 0.25

Variant	enrichment ratio
SLSK	1.32
LTSM	≤ 0.25
YEFT	≤ 0.25
EQMA	≤ 0.25
YWDV	≤ 0.25
FSKY	≤ 0.25
RFDA	≤ 0.25
YYPS	≤ 0.25
RQEW	≤ 0.25
NGHE	≤ 0.25
AKDR	≤ 0.25
DPKR	≤ 0.25
LEAE	≤ 0.25
QGHF	≤ 0.25
WEAL	≤ 0.25
YIDC	≤ 0.25
LNRT	≤ 0.25
ECQQ	≤ 0.25
SPKG	≤ 0.25
HQNK	≤ 0.25
HRLA	0.286
TLHI	≤ 0.25
TVDH	4.63
QCNT	≤ 0.25

Variant	enrichment ratio
WCCH	≤ 0.25
ERWC	≤ 0.25
FPHD	≤ 0.25
FVWP	≤ 0.25
WSHF	≤ 0.25
DQGI	≤ 0.25
ACAF	3.99
RNWW	≤ 0.25
VEDY	≤ 0.25
LCMT	≤ 0.25
SSVW	≤ 0.25
AVML	4.05
TNNP	≤ 0.25
KAEE	≤ 0.25
QMPT	≤ 0.25
DLDQ	≤ 0.25
YQMT	0.333
AWNT	≤ 0.25
TPQE	≤ 0.25
GQHL	≤ 0.25
NRMV	≤ 0.25
GQVC	0.594
VCER	≤ 0.25
TILQ	1.33

Variant	enrichment ratio
YVEW	≤ 0.25
TTIP	≤ 0.25
QCYH	≤ 0.25
RFMG	≤ 0.25
QGQI	≤ 0.25
IFIV	≤ 0.25
TIVW	≤ 0.25
IDAF	≤ 0.25
DYNF	≤ 0.25
HNHW	≤ 0.25
SIDM	≤ 0.25
DMSK	≤ 0.25
SFKC	≤ 0.25
INQG	≤ 0.25
ERQY	≤ 0.25
SYWL	≤ 0.25
RMQT	≤ 0.25
EFDE	≤ 0.25
NYSQ	≤ 0.25
DITV	≤ 0.25
SCCH	2.93
IICT	≤ 0.25
HQTY	≤ 0.25
NDEV	≤ 0.25

Variant	enrichment ratio
HTGA	≤ 0.25
MACK	≤ 0.25
TLEH	≤ 0.25
TVTT	6.02
IQMM	≤ 0.25
DGQR	≤ 0.25
WKCF	≤ 0.25
ENIC	≤ 0.25
PTNL	≤ 0.25
QAFN	8.51
YAQR	≤ 0.25
SAKE	≤ 0.25
KVCN	≤ 0.25
RRIH	≤ 0.25
IVNT	≤ 0.25
MGNC	≤ 0.25
AKGL	5.13
KEYL	≤ 0.25
QVCV	≤ 0.25
IPEQ	≤ 0.25
KAGL	≤ 0.25
VSVG	≤ 0.25
HNPS	≤ 0.25
TMEA	≤ 0.25

Variant	enrichment ratio
QMQV	≤ 0.25
QYTV	≤ 0.25
PNQK	≤ 0.25
WSPP	≤ 0.25
EACP	≤ 0.25
QQHA	≤ 0.25
TYHN	≤ 0.25
HIMF	≤ 0.25
IWSI	≤ 0.25
YCMM	≤ 0.25
QEQN	≤ 0.25
YLDP	≤ 0.25
IMLN	≤ 0.25
QHEI	≤ 0.25
NQKI	≤ 0.25
FCRH	≤ 0.25
HIIW	≤ 0.25
LHES	≤ 0.25
DGVY	≤ 0.25
WKHD	≤ 0.25
LWPI	≤ 0.25
GWWL	≤ 0.25
LWQE	≤ 0.25
LDFT	≤ 0.25

Variant	enrichment ratio
DCDT	≤ 0.25
SVHI	≤ 0.25
QQHV	≤ 0.25
QNKT	≤ 0.25
PDVV	≤ 0.25
EVAI	≤ 0.25
AVWL	≤ 0.25
TPMT	≤ 0.25
YLWE	≤ 0.25
EVWY	≤ 0.25
AWYM	≤ 0.25
RCIL	≤ 0.25
WWMK	≤ 0.25
EYKG	≤ 0.25
IHHR	≤ 0.25
PYME	≤ 0.25
LGTL	≤ 0.25
ALQI	≤ 0.25
NSMQ	≤ 0.25
HDCV	≤ 0.25
WWPQ	≤ 0.25
NPLW	≤ 0.25
VRCT	≤ 0.25
IISR	≤ 0.25

Variant	enrichment ratio
TYSF	≤ 0.25
WMPW	≤ 0.25
FKTS	≤ 0.25
FFNK	≤ 0.25
AATF	4.74
ERTP	≤ 0.25
SRKY	≤ 0.25
HEMF	≤ 0.25
PYGR	≤ 0.25
TNVV	≤ 0.25
IPCP	≤ 0.25
GDHY	≤ 0.25
ICIR	≤ 0.25
LPIH	≤ 0.25
RITV	≤ 0.25
FEEM	≤ 0.25
SMNI	≤ 0.25
NAVK	≤ 0.25
HGAM	≤ 0.25
MNCQ	≤ 0.25
KWGL	≤ 0.25
NGWY	≤ 0.25
WVYY	≤ 0.25
LANE	≤ 0.25

Variant	enrichment ratio
YPGS	≤ 0.25
QKEE	≤ 0.25
AENL	≤ 0.25
QSFQ	7.51
QIYF	2.65
AIAI	12.7
EDCM	≤ 0.25
YEHM	≤ 0.25
FHMG	≤ 0.25
YHWN	≤ 0.25
AMCQ	6.16
WKPL	≤ 0.25
PLHK	≤ 0.25
SQQT	≤ 0.25
PNCA	≤ 0.25
FKIS	≤ 0.25
FWTW	≤ 0.25
SKPE	≤ 0.25
KELY	≤ 0.25
FFWH	0.871
GHEH	≤ 0.25
NYKA	≤ 0.25
QRVH	≤ 0.25
NCDN	≤ 0.25

Variant	enrichment ratio
SKEW	≤ 0.25
NRVI	≤ 0.25
KLAL	≤ 0.25
KSAV	≤ 0.25
GPEP	≤ 0.25
DPCN	≤ 0.25
TGCN	42.2
FFQW	≤ 0.25
KRRL	≤ 0.25
LKWG	≤ 0.25
WMVD	≤ 0.25
FSNP	≤ 0.25
YAGC	≤ 0.25
SISI	19.1
DHDT	≤ 0.25
DNMQ	≤ 0.25
WPVY	≤ 0.25
LWQL	≤ 0.25
WFYT	≤ 0.25
FVPV	≤ 0.25
PESV	≤ 0.25
RFCV	≤ 0.25
QHTP	≤ 0.25
WCKQ	≤ 0.25

Variant	enrichment ratio
YRGG	≤ 0.25
SDWM	≤ 0.25
DPFF	≤ 0.25
ISFY	≤ 0.25
NKNG	≤ 0.25
HGVS	≤ 0.25
VMVQ	≤ 0.25
GKRR	≤ 0.25
EARK	≤ 0.25
WGGH	≤ 0.25
ICFK	≤ 0.25
TAGV	5.24
AWAW	≤ 0.25
NNIT	≤ 0.25
LYGD	≤ 0.25
WDFA	≤ 0.25
PKYL	≤ 0.25
QQTS	≤ 0.25
HVVL	≤ 0.25
VWTW	≤ 0.25
SAIV	3.88
GPWD	≤ 0.25
LQIQ	≤ 0.25
MIYI	24.3

Variant	enrichment ratio
LYYR	≤ 0.25
QVIT	≤ 0.25
RFYW	≤ 0.25
DTEC	≤ 0.25
YFLC	≤ 0.25
IDMY	0.903
FTFI	≤ 0.25
IRET	≤ 0.25
DLFL	≤ 0.25
WCWC	≤ 0.25
TGSG	16.4
YRCM	≤ 0.25
FLMC	0.995
DGQG	≤ 0.25
SKYI	≤ 0.25
DYGC	≤ 0.25
HRQG	≤ 0.25
WQCM	≤ 0.25
